# Test results published in paper PMC12136788.
# The other results are listed elsewhere or left out.
# T1: UNK ZnF1-6 (called full-length) (human, UniProt Q9C0B0 30-357)
# T1 sequence: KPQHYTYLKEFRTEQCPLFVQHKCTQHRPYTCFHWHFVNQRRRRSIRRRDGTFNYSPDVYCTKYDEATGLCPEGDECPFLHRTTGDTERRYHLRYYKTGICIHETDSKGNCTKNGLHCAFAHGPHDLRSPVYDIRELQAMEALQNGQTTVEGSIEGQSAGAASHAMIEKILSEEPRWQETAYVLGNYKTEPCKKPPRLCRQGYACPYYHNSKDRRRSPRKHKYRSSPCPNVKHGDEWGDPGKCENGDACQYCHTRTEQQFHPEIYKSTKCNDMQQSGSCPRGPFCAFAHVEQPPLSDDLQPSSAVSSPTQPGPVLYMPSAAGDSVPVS
# B1: chr5:132696315:132696416:-|3pUTR|ENSG00000131437|msi1|total|mutant (ssRNA)
# RNA: GGGAGUUCUACAGUCCGACGAUCGUUGUACUACUACUCUUCAAUUGUACUGUGCAGGGAAGUUGGGGGAACAGUUCAUACUACCGAGAGUUACAGUUCCGAUGUAUGUGUAAAUCGAUCCGCUAUUUAUCCAACUACUGUAUACAACAGAGGAUUGAGCAUCA
# B2: ENSG00000087586:stop:overlap|stop_codon|ENSG00000087586|stop_codon|NA|stop_codon (ssRNA)
# RNA: GGGAGUUCUACAGUCCGACGAUCCAGCAAAUUCAUCAAAACCAUCAAAUUGCCAAAACAAAGAAUCAGCUAGCAAACAGUCUUAGGAAUCGUGCAGGGGGAGAAAUCCUUGAGCCAGGGCUGCCAUAUAACCUGACAGGAACACAACAGAGGAUUGAGCAUCA
# B3: chr18:2804133:2804242:+|3pUTR|ENSG00000101596|unk|FALSE|unique (ssRNA)
# RNA: GGGAGUUCUACAGUCCGACGAUCGGUUAAAGAGAAAUGACUUUUUAGGAACUAGACUUGAACGUAUAAUUAAUAUGUGGAACUAGUUUGCUUUUAUAAUUCAUUGUAUCAAGAAGGAGUCAUGUUUUAAAUCCAAGGCAUUGACAACAGAGGAUUGAGCAUCA
# B4: chr10:17237356:17237519:+|3pUTR|ENSG00000026025|msi1_unk|FALSE|overlapping (ssRNA)
# RNA: GGGAGUUCUACAGUCCGACGAUCAGAUAGAUUUGGAAUAGGAAUAAGCUCUAGUUCUUAACAACCGACACUCCUACAAGAUUUAGAAAAAAGUUUACAACAUAAUCUAGUUUACAGAAAAAUCUUGUGCUAGAAUACUUUUUACAACAGAGGAUUGAGCAUCA
# B5: chr8:103229222:103229323:+|3pUTR|ENSG00000164929|unk|FALSE|unique (ssRNA)
# RNA: GGGAGUUCUACAGUCCGACGAUCUAAUUUUCUAGUAUGUCUUGAAACAUGUUCAUCUGGAAGUAUUUUCCUCCAAAGUAAUGUAGCAUGAUUUUUCAAGGAUUGUUAACAUGCCUGGGAUUGGGAAAGAUAGGACUAAAGUUGCAACAGAGGAUUGAGCAUCA
# B6: chr1:94529602:94529703:-|3pUTR|ENSG00000117525|msi1|FALSE|unique (ssRNA)
# RNA: GGGAGUUCUACAGUCCGACGAUCUGGAAGGAAAUUGGGUGCAUUUCUAGGACUUUUCUAACAUAUGUCUAUAAUAUAGUGUUUAGGUUCUUUUUUUUUUCAGGAAUACAUUUGGAAAUUCAAAACAAUUGGCAAACUUUGUAUCAACAGAGGAUUGAGCAUCA
# B7: ENSG00000198589:be:win_1001|CDS|ENSG00000198589|bound_else_gene|NA|bound_elsewhere_windowed (ssRNA)
# RNA: GGGAGUUCUACAGUCCGACGAUCUCAACACUAGCGAUACCUUUGACAAAUGUUUCCUGGGCUCAUCAGAAACAGCAGAUGCUAAUAGAGUAUUCUGUGGUCAGAUGACUGCAGUUUACCUUUUCAGUGAAGCUCUAAAUGCAGCAACAGAGGAUUGAGCAUCA
# B8: chr5:90513983:90514084:+|3pUTR|ENSG00000113356|unk|FALSE|unique (ssRNA)
# RNA: GGGAGUUCUACAGUCCGACGAUCAAAUACACUGAAGAUAAAGGUUAUUUCUUUUUUUAGCUUUGAAUUUGUCAUGACCAUUUUAGUCUUGCAGAUAGCAGGGCAGCCCCUUGGGGCAAGGAUUUACUCUGGGAGGUACCGUUACAACAGAGGAUUGAGCAUCA
# B9: chr15:52550141:52550321:-|3pUTR|ENSG00000128989|msi1|total|mutant (ssRNA)
# RNA: GGGAGUUCUACAGUCCGACGAUCAGAUGUCACUUCCGUAAAAUACCAAUUCCGUUUUACUUGUGGCUUAUCCCGUCCGAACUCCGCAGACUUUACUGGGACAAGUUUACUGCUCUUGCCGGAGCUCCUCUCACAAGCCGUUGUCAACAGAGGAUUGAGCAUCA
# B10: ENSG00000136451:be:win_2001|3pUTR|ENSG00000136451|bound_else_gene|NA|bound_elsewhere_windowed (ssRNA)
# RNA: GGGAGUUCUACAGUCCGACGAUCGCUAGUGUAGAAUUGUCUGUGUUUAUUGUUUUUAUGAGUAAAUACAUGCAUUGUCAUAAUAAAAUGCAUUUCAGAGAAUAUGCAUUUUACCUUUGGGAAUAUGUUAAUUUCAGGCAGCAUCAACAGAGGAUUGAGCAUCA
# B11: chr2:25738620:25738721:-|3pUTR|ENSG00000143970|unk|FALSE|unique (ssRNA)
# RNA: GGGAGUUCUACAGUCCGACGAUCAUACAUAUUAAUGACCUGACAGUUAACAUUCUGUUGUUUAUUAUUGCCUUUCUCCACCUUAGAGAGCCAUAAAUAACUCUCUGGUGAAGUGAUUUGCUAUAAUGGGGGUGAGGAGUGGGGCAACAGAGGAUUGAGCAUCA
# B12: chrX:152166439:152166540:-|3pUTR|ENSG00000011677|unk|FALSE|unique (ssRNA)
# RNA: GGGAGUUCUACAGUCCGACGAUCCACCACAAGCAGAUUCUCCCUGCCCACCGGCUGAACAAAGCUCCUAAGGGGUGUAUCAUUAGCUGCUGGUUGCCUUUUCAUCCAUCCUUUCCCCGUCCCCUGCUUCCUUGCCAUUGCUGGCAACAGAGGAUUGAGCAUCA
# B13: chr14:53038166:53038268:-|3pUTR|ENSG00000100523|unk|total|mutant (ssRNA)
# RNA: GGGAGUUCUACAGUCCGACGAUCGAGCUUUUGGCAGAGUCUUCGGGGUUUUCCCGGUAUAAAAUCAUAUCAGCGAAGAGAGCCCGUUUGAUUUCUUUUCCCAGUUGGAUGCCUUUUAUUUAUUUCUCUUGCCUGAUUGCUCUACAACAGAGGAUUGAGCAUCA
# B14: chr2:235053981:235054083:+|3pUTR|ENSG00000130147|unk|total|mutant (ssRNA)
# RNA: GGGAGUUCUACAGUCCGACGAUCCUCCUCCAUCGAGGGAGAGGCCUGAAGGGACUGCCUACUGCAGCUCGUUGCCAAUCACACCGCUUUCUAUUUGUUAAGUAUAAAUUUAAAUUUAAAAUCACUUUUUUAACGAAUGGGGGGCAACAGAGGAUUGAGCAUCA
# B15: ENSG00000165868:stop:overlap|stop_codon|ENSG00000165868|stop_codon|NA|stop_codon (ssRNA)
# RNA: GGGAGUUCUACAGUCCGACGAUCAGCAGCCGGCCAAGCAGUUCAUGAGACAAGCUGCCUACCAGGCGGACCCUAUGGAUCUUUAGGAGUAGAUUAUGAGUUCGAAAAACUUCUGUAUAAAAUAUUUGGAGAGGAUUUUAUUGACAACAGAGGAUUGAGCAUCA
# B16: chr9:114377124:114377225:-|CDS|ENSG00000106948|msi1|FALSE|unique (ssRNA)
# RNA: GGGAGUUCUACAGUCCGACGAUCUCCGUUGAACUCAGCCCGGCAAGGUCCUGGAGCAGUGGGACAGUGAGCCUCGACCACCCUAGUGACAGCCUUGAUUCUACCUGGGAAGGAGAGACCGAUGGCCCCCAGCCCACUGCCCUGCAACAGAGGAUUGAGCAUCA
# B17: ENSG00000096070:stop:overlap|stop_codon|ENSG00000096070|stop_codon|NA|stop_codon (ssRNA)
# RNA: GGGAGUUCUACAGUCCGACGAUCAGAAGGAUCCUGCACACAUCUUCGCAGAACCAGUCAACUUGAGUGAGGUUUUAUAUGUUUAGGUUCCAGAUUACCUGGAAUUCAUAUCCAAGCCAAUGGAUUUUUCUACUAUGAGGCGGACAACAGAGGAUUGAGCAUCA
# B18: chr8:143803364:143803465:-|CDS|ENSG00000180900|msi1|FALSE|unique (ssRNA)
# RNA: GGGAGUUCUACAGUCCGACGAUCACCCUCACCGUGCUGGUCUGUGACGGCUUUGAGGCCAGCACCGACGCAGCCCUGGAGGUUAGCGAUCCCGCCCCGGGGACCGGGCCUCCCUCUGGCCCAGCCCAAGGUGUUGUGAGCCGCCAACAGAGGAUUGAGCAUCA
# B19: chr7:7607225:7607326:+|3pUTR|ENSG00000164654|msi1|FALSE|bound_elsewhere (ssRNA)
# RNA: GGGAGUUCUACAGUCCGACGAUCUUUGAGUGAUUUUGAUAUGCUUCACAGAGACAAAUGCUGCCAAAAUAAACAUCGAAGUAUAGACAUGAGUUCUGUUCAGCAGGUUGAAAAGUCUGAUUUAGAAAAACUUUCUAAGUUUUGCAACAGAGGAUUGAGCAUCA
# B20: chr6:13639604:13639705:-|CDS|ENSG00000010017|unk|FALSE|unique (ssRNA)
# RNA: GGGAGUUCUACAGUCCGACGAUCGAUAGUGAAGUACGAUGUUUGGGAGGCCGAAGUCCAAAGUCUCAAGACAGUUAUCCUGUUAGUCCUCGACCUUUUAGUAGUCCAAGUAUGAGCCCCAGCCAUGGAAUGAAUAUCCACAAUCAACAGAGGAUUGAGCAUCA
# B21: chr2:53865134:53865235:-|3pUTR|ENSG00000068878|unk|total|mutant (ssRNA)
# RNA: GGGAGUUCUACAGUCCGACGAUCGUCCUGUCAUUUCAUUCAUCUCAAAUUAUUUUGAAUUCUUCCCAAAUGGCUGCUGGAUUCCGGUGGUAACCGGGGCUGUGGGCCAUAAAUCUGAAGCCUUGAGAACCUUGGGUCUGGAGACAACAGAGGAUUGAGCAUCA
# B22: ENSG00000130816:stop:overlap|stop_codon|ENSG00000130816|stop_codon|NA|stop_codon (ssRNA)
# RNA: GGGAGUUCUACAGUCCGACGAUCUGGCCAAAGCCCGAGAGAGUGCCUCAGCUAAAAUAAAGGAGGAGGAAGCUGCUAAGGACUAGUUCUGCCCUCCCGUCACCCCUGUUUCUGGCACCAGGAAUCCCCAACAUGCACUGAUGUCAACAGAGGAUUGAGCAUCA
# Biological target: T1, UNK ZnF1-6 (called full-length)
# Assay: nsRBNS (natural sequence RNA bind-n-seq); RBNS binding buffer (assumed for nsRBNS): 25 mM Tris pH 7.5, 150 mM KCl, 3 mM MgCl2, 0.01% Triton X-100, 500 ug/ml BSA, 20 U/ml SUPERase-In, 4 C; UNK is unkempt and MSI1 is Musashi-1; names of the RNAs are library labels; protein concentration not given here; high values mean tight binding
row,Binder,binding signal [enrichment R]
1,B1,0.813
2,B2,0.534
3,B3,0.789
4,B4,7.53
5,B5,0.574
6,B6,10
7,B7,0.527
8,B8,0.761
9,B9,0.541
10,B10,0.983
11,B11,0.823
12,B12,0.93
13,B13,0.454
14,B14,0.776
15,B15,0.728
16,B16,1.01
17,B17,0.627
18,B18,0.519
19,B19,0.411
20,B20,1.17
21,B21,0.655
22,B22,0.962
